Results on 80 compounds are retold here after PubChem BioAssay (NCI).

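Five compound concentrations were applied to cells in 96-well plates for 48 hours; endpoints were derived by simple linear interpolation of the resulting dose-response curve. At the GI50, growth is halved. TGI: total growth inhibition.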 Activity calls are given as the source filed them. No stated cut-off is given here; in the data, active means GI50 below about 0.43 µM; inactive means the rest. Square brackets hold non-standard residues; d marks the D form. Peptide text beside a SMILES is read from it. * marks the point of attachment. Phe(4-NO2) = N[CH](Cc1ccc([N+](=O)[O-])cc1)C(=O)O; Boc = CC(C)(C)OC(=O)*; OtBu = CC(C)(C)O* Where only a bound is given, the exact number is not on record here.

In the assay the test system is NCI-H322M lung. Briefly: NCI-60 cell line screen, 48 h.
In the case of `NCCCCCCn1c2c(c3ccccc3c1=O)C(=O)c1ccccc1-2`, the GI50 was 4.11 µM and the TGI stood at 17.5 µM.
`Nc1ccn([C@@H]2O[C@H](COP(=O)(O)O[C@@H]3C[C@H](n4cc(F)c(=O)[nH]c4=O)O[C@@H]3COP(=O)(O)O[C@@H]3C[C@H](n4cc(F)c(=O)[nH]c4=O)O[C@@H]3COP(=O)(O)O[C@@H]3C[C@H](n4cc(F)c(=O)[nH]c4=O)O[C@@H]3COP(=O)(O)O[C@@H]3C[C@H](n4cc(F)c(=O)[nH]c4=O)O[C@@H]3COP(=O)(O)O[C@@H]3C[C@H](n4cc(F)c(=O)[nH]c4=O)O[C@@H]3COP(=O)(O)O[C@@H]3C[C@H](n4cc(F)c(=O)[nH]c4=O)O[C@@H]3COP(=O)(O)O[C@@H]3C[C@H](n4cc(F)c(=O)[nH]c4=O)O[C@@H]3COP(=O)(O)O[C@@H]3C[C@H](n4cc(F)c(=O)[nH]c4=O)O[C@@H]3COP(=O)(O)O[C@@H]3C[C@H](n4cc(F)c(=O)[nH]c4=O)O[C@@H]3COP(=O)(O)O[C@@H]3C[C@H](n4cc(F)c(=O)[nH]c4=O)O[C@@H]3COP(=O)(O)OCCOCCOCCOCCOCCOCCO)[C@H](O)C2O)c(=O)n1` (some centres undefined): the GI50 is over 100 µM and the TGI is over 100 µM.
For the compound `O=c1cc(-c2ccc(O)c(O)c2-c2c(O)cc3oc(-c4ccc(O)c(O)c4)cc(=O)c3c2O)oc2cc(O)cc(O)c12`, the result was inactive.
Take `Cc1cc(C)c(C2CC(O)C(CO)O2)cc1C` (centres undefined): the TGI is over 100 µM.
As for `CN(C)c1ccc(/C=c2/c3ccccc3n3c2cc(-c2ccc(Cl)cc2)[n+]3C)cc1`, the TGI came to 1.65 µM.
Take `CN(C)CCc1ccc(Cl)cc1Cl`: the TGI is over 100 µM.
For the compound `N#Cc1c(N)nc(NCc2ccccc2)c(C#N)c1-c1ccc(Cl)cc1`, the GI50 is 19.1 µM and the TGI stood at 85.9 µM.
For `CN1CCN(c2ccc(N3Cc4ccccc4OC4=C3C(=O)c3c(O)ccc(O)c3C4=O)cn2)CC1` the same measures were 1.64 µM and 5.19 µM.
On to `O=C(CN1CCN(c2ccccc2)CC1)c1ccc2[nH]c(=O)oc2c1`, for which the TGI is over 100 µM.
As to `Nc1cc(N)c2nc(-c3ccccc3)c(Sc3ccc(Cl)c(Cl)c3)nc2c1`, the GI50 is 7.1 µM and the TGI is 35.6 µM.
Compound `O=C1/C(=C/c2cccc([N+](=O)[O-])c2)N=C(c2ccccc2)N1c1nc2c(Cl)cc(Cl)cc2s1` showed a TGI of over 100 µM.
On the same count and under the same terms, under `COc1ccc(N2C(=O)CC(=O)N(C(=O)CCCCCCCCC(=O)N3C(=O)CC(=O)N(c4ccc(OC)cc4)C3=S)C2=S)cc1` stands over 100 µM; under `Brc1ccc2[nH]cc([C@H]3CN[C@@H](c4c[nH]c5ccc(Br)cc45)CN3)c2c1`, 10.2 µM.
Same read-out and setting: as for `C[C@]12Cc3cn[nH]c3C(=O)C1CC[C@@H]1C2CC[C@@]2(C)C1CC[C@]2(C)O` (some centres undefined), the figure is over 100 µM; as for `COc1ccc2nc3cccc([N+](=O)[O-])c3c(NCCN(C)C)c2c1`, 0.491 µM.
The same measure, in the same setting: as for `Cc1cc2cc3c(Cl)c(CCCl)c(C)nc3cc2c(Cl)c1CCCl`, the figure is 81.7 µM.
For the compound `O=C(O[C@H]1CN[C@H](C#Cc2cc3ncnc(Nc4ccc5c(cnn5Cc5ccccc5)c4)c3s2)C1)N1CCOCC1`, the GI50 is 0.35 µM and the TGI was over 10.8 µM.
`CC(=O)NC(CCC(=O)OC(C)(C)C)C(=O)NC(CCC(=O)OC(C)(C)C)C(=O)NC(Cc1ccc([N+](=O)[O-])cc1)C(=O)NC(CCCCNC(=O)OC(C)(C)C)C(=O)NC(CCCCNC(=O)OC(C)(C)C)C(=O)NCC(=O)O` (centres undefined) (Ac-E(OtBu)E(OtBu)[Phe(4-NO2)]K(Boc)K(Boc)G-OH; configuration not given here) yielded a TGI of over 100 µM.
The compound `CCOc1ccc(N=NC2C(=O)N(C(=O)CC(=O)Nc3ccc(C)cc3)N=C2C)cc1` (centres undefined) came in with a TGI of over 100 µM.
Consider `CN(CC(=O)O)S(=O)(=O)c1ccc(F)cc1`, for which the TGI was over 100 µM.
Still for that read-out and setting: as for `CC(C)(C)c1ccc2c(c1)C(O)(c1ccccc1)c1cc(C(C)(C)C)ccc1C2(O)C(F)(F)F` (centres undefined), the figure is 5.34 µM.
Turning to `C/C=C(\C)C(=O)O[C@H]1C=CC(=O)O[C@H]1CC[C@H](O)[C@H](C)O`, the GI50 was 16.3 µM and the TGI is 32 µM.
For the compound `Cc1c(Cl)ccc2c1NC(=O)C2(O)CC(=O)c1ccc2ccccc2c1` (centres undefined), the TGI is over 100 µM.
Consider `CN1C(=O)CC2(C)c3cc(O)ccc3N(C)C12` (centres undefined), for which the GI50 was over 75 µM and the TGI is over 75 µM.
With `Cc1ccccc1OCC(COC(=O)Nc1ccccc1)OC(=O)Nc1ccccc1` (centres undefined), the TGI is over 100 µM.
As to `CC(C)OC(=O)c1ccc(CCc2cc(O)c(Br)cc2O)cc1`, the TGI came to 61.5 µM.
As to `CS(=O)(=O)Nc1ccc(Nc2c3ccccc3nc3cc(N)ccc23)cc1`, the GI50 is 6.03 µM and the TGI was 42.5 µM.
In turn, `COS(=O)(=O)OCCC(NC(=O)OCc1ccccc1)C(=O)OCc1ccccc1` (centres undefined) showed a TGI of over 100 µM.
`COC(=O)c1nn(-c2ccccc2)c(=O)cc1N=[N+]=[N-]` had a TGI of over 100 µM.
On the same count and under the same terms, as for `Oc1c(C(O)c2ccccn2)ccc2ccccc12` (centres undefined), the figure is over 100 µM; as for `COc1ccc2c(c1)CN1C(=N2)CSC1c1c(Cl)cccc1[N+](=O)[O-]` (centres undefined), over 100 µM; as for `CCc1nnc(CC)n1-n1c(Cc2ccccc2)n[nH]c1=O`, over 100 µM.
Still for that read-out and setting: as for `N#Cc1ccc(Oc2nc3ccccc3nc2C(=O)O)cc1`, the figure is over 100 µM; as for `CCOC(=O)C1N(S(=O)(=O)c2ccc(C)cc2)CCC12c1ccccc1NC2c1ccc(OC)c(OC)c1` (centres undefined), over 100 µM; as for `C=CS(=O)(=O)c1c2cc(OC)ccc2nc2ccc(OC)cc12`, 29.1 µM.
Still for that read-out and setting: under `COc1ccc2nccc(NCCCN3CCN(CCCNc4ccnc5ccc(OC)cc45)CC3)c2c1` stands 4.74 µM.
Take `CC[N+](CC)(CC)Cc1cc2ccccc2n1C(=O)OC`: the TGI was over 100 µM.
The same measure, in the same setting: as for `CNC(=S)N/N=C(\C)c1cc(OC)ccc1O`, the figure is over 100 µM; as for `COc1ccc(C(=O)N/N=C2\C(=O)c3c(C)cc(C)cc3CC2(C)C)cc1`, 90.7 µM; as for `C[C@]12C=CC(=O)C=C1[C@@H](F)C[C@H]1[C@@H]3CC[C@](O)(C(=O)CO)[C@@]3(C)C[C@H](O)[C@@]12F`, over 100 µM.
Still for that read-out and setting: under `CC1=C(C(=O)Nc2cc(F)c(F)cc2F)C(c2ccc3c(c2)OCO3)C(C(=O)Nc2cc(F)c(F)cc2F)=C(C)N1` stands 78 µM; under `Cc1cn(C2CC(n3cncn3)C(C(C)O)O2)c(=O)[nH]c1=O` (centres undefined), over 100 µM; under `Cc1nnc(N)nc1/C=C\c1ccc(N(C)C)cc1`, over 100 µM.
With `CC1CCCP(=O)(c2ccccc2)CC1` (centres undefined), the TGI was over 100 µM.
As for `Cc1cc(C)c(C#N)c(SCC(=O)c2sc3c(C#N)c(C)cc(C)[n+]3c2[O-])n1`, the GI50 was 0.798 µM and the TGI was over 100 µM.
`Nc1nc(=S)c2c(ncn2CC(O)CO)[nH]1` (centres undefined) registered a TGI of over 100 µM.
In turn, `Cc1nc2c([nH]c1C)c(O)cc1c3c(nc12)C(=O)CCC3` had a TGI of over 100 µM.
`NC1CCC[C@H]1O` (some centres undefined) showed a TGI of over 100 µM.
Consider `CCCOP1(=O)C=CC(Cl)=C(C)C1` (centres undefined), for which the TGI is over 100 µM.
The compound `COc1ccc(/C=C2\N=C(SC)N(C)C2=O)cc1` showed a TGI of over 100 µM.
`COc1ccc(C(=O)n2nc(/C=C/c3ccc(O)c(OC)c3)cc2/C=C/c2ccc(O)c(OC)c2)cc1`: the GI50 is 1.29 µM and the TGI turned out to be 10.5 µM.
Regarding `Clc1ccc(Nc2nn3c(CCCCCCCCc4nnc5sc(Nc6ccc(Cl)cc6)nn45)nnc3s2)cc1`, the TGI is over 100 µM.
The same measure, in the same setting: under `O=S(=O)(O)c1cc(N=Nc2c(O)ccc3ccccc23)c2c(S(=O)(=O)O)cccc2c1` stands over 100 µM.
Same read-out and setting: under `CCCCCCCCCCCc1noc2c1C(=O)C(O)CC2` (centres undefined) stands over 100 µM.
As for `CC(C)(C)c1cc(Cc2ccc([N+](C)(C)C)cc2)c(O)c(C(C)(C)C)c1`, the TGI was determined as 46.2 µM.
As to `CNN1C(=O)c2c(N)c(C#N)c(-c3ccccc3)c(-c3ccccc3)c2C1=O`, the TGI is over 100 µM.
On the same count and under the same terms, as for `O=c1c(O)c(-c2ccccc2)n(O)c2ccc(Cl)cc12`, the figure is over 100 µM; as for `CC(=O)N(C)c1ccc2ncccc2c1[N+](=O)[O-]`, over 100 µM; as for `CN(C)C=Nc1ccc2nonc2c1`, over 100 µM.
On the same count and under the same terms, as for `COc1cc2c(/C=C3/C(=O)Nc4ccc(O)cc43)c(Cl)[nH]c2cc1C`, the figure is 13.5 µM; as for `CC1=NN(c2nc(N)nc(COCc3nc(N)nc(N4N=C(C)CC4(C)C)n3)n2)C(C)(C)C1`, over 100 µM.
As for `COC(=O)[C@@]12CCCC(=O)[C@@H]1[C@H]1CCC[C@H]12`, the TGI is over 100 µM.
`CCCc1cc2c(cc1O)CC[C@@H]1[C@@H]2CC[C@]2(C)[C@@H](O)CC[C@@H]12`: the TGI turned out to be 31 µM.
Turning to `C=C(Nc1ccc(OC)cc1OC)C(=O)Cc1cccc[n+]1[O-]`, the TGI was over 100 µM.
Consider `CC1(C)COC2(OC1)C1=NS(=O)(=O)CC13CCC2C3(C)C` (centres undefined), for which the TGI was over 100 µM.
With `O=C(CCc1n[nH]c(=S)o1)Nc1cc(Cl)c(Cl)cc1Cl`, the TGI was over 100 µM.
In turn, `COCCCN(Cc1cc(OC)c(OC)c(OC)c1)C(=S)Nc1cccc(Cl)c1` gave a TGI of over 100 µM.
Regarding `O=C1C(=O)c2c(O)ccc(O)c2C(O)=C1Cl`, the TGI was over 100 µM.
The same measure, in the same setting: as for `C[N+](C)(C)CC(=O)N/N=C(/Cc1nc2ccc(Cl)cc2[nH]c1=O)C1=NS(=O)(=O)c2cc(S(N)(=O)=O)c(Cl)cc2N1`, the figure is over 100 µM.
For the compound `O=C1/C(=C/c2ccc(O)c(O)c2)COc2ccc(-c3ccccc3)cc21`, the GI50 is 3.21 µM and the TGI was found to be 13.9 µM.
In turn, `O=CC1C(Cl)=Nc2nc3ccccc3n2C1c1ccc([N+](=O)[O-])cc1` (centres undefined) gave a TGI of 44.4 µM.
Same read-out and setting: under `NC1=NS(=O)(=O)Nc2nc(-c3ccccc3)c(-c3ccccc3)nc21` stands over 100 µM.
Take `Clc1ccc(N2CCN(CCCN3CCN(c4cccc(Cl)c4)CC3)CC2)cc1`: the GI50 is 12.1 µM and the TGI amounted to 33.6 µM.
`O=C(N=Nc1ccc(Br)cc1)NNc1ccc(Br)cc1` displayed a TGI of over 100 µM.
On the same count and under the same terms, under `O=c1cc(-c2ccccc2)[nH]c2ccc(N3CCCCC3)cc12` stands over 100 µM; under `CCCCCC(=O)N[C@H]1CCc2cc(OC)c(OC)c(OC)c2-c2ccc(SC)c(=O)cc21`, over 100 µM.
Compound `O=C(O)c1c(-c2ccccc2)c(=O)[nH]c2ccccc12` gave a TGI of over 100 µM.
For the compound `CCCN1C(=O)/C(=C/c2cccc(O)c2)SC1=Nc1ccccc1`, the GI50 is 13.8 µM and the TGI is 27.5 µM.
For the compound `CCCCN(C(=O)c1ccccc1)C1CCC(=O)c2[nH]c3ccccc3c21` (centres undefined), the TGI was over 100 µM.
The same measure, in the same setting: under `CC1=CC(=O)C(=C(C)C)CC1` stands over 100 µM.
